# Measured values from article PMC12040169 (PLOS Biology, 2025).
# The list shows a part of the results.
# System: T1, C. trachomatis L2/434/Bu expressing GFP (CTL2-GFP)
# T1 construct: L2/434/Bu GFP intracellular growth in HeLa cells
# Set-up: species or system HeLa; C. trachomatis total inclusion area by high-content imaging, normalised to DMSO
# Conditions: total inclusion area; 28.5 h, 10 µM; inhibitor
# Summary of the method: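 High-content images of fixed, Hoechst-stained infected cultures supply inclusion area and count (growth) plus nuclei number (viability), complementing bulk GFP/resorufin fluorescence. MIC determination is unchanged from the primary assay.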
row,Compound,% of control remaining
1,CC(C)Nc1nccnc1OCCc1c[nH]c2ccccc12 [CBK115647],100.181
2,CS(=O)(=O)Nc1ccc(CNC(=O)c2ccc3[nH]ccc3c2)cc1 [CBK161747],100.816
3,Cc1cc(C)cc(Nc2cc(C)n3c(=O)[nH]nc3n2)c1 [CBK288380],88.2022
4,Cc1oc2c(c1C(=O)N(C)CCN1CCCCC1)CCCC2 [CBK281907],95.8678
5,Cc1ccc(N(CC(=O)Nc2ccc(Br)c(C)c2)S(=O)(=O)c2ccc(C)cc2)cc1 [CBK264038],115.202
6,C=CCOc1c(Br)cc(CNc2cccc(C(=O)O)c2)cc1OC [CBK074581],69.8665
7,O=S(=O)(CC(F)(F)F)Nc1ccc(N2CCNCC2)c2ccccc12 [CBK059354C],68.1176
8,Cc1c(Cl)cc(C(C)C)c(O)c1CNC(=O)CSc1nnc(-c2cccs2)n1C [CBK267416],92.0579
9,COc1cccc(C(C(F)(F)F)P(C)(=O)O)c1 (centres unmarked) [CBK262393],92.7049
10,COc1ccnc(N2CCCN(Cc3ncc(Cl)n3C)CC2)n1 [CBK305152],36.9997
11,O=C(c1nc2ccccc2[nH]1)N1CCc2ccccc21 [CBK200411],85.9732
12,N#CC1CCCc2c1[nH]c1ccccc21 (centres unmarked) [CBK098397],70.8629
13,c1ccc2c(c1)N1CCCN=C1N2CCN1CCOCC1 [CBK278300C],87.5478
14,CCN1CCN(C(=O)c2c(C)noc2C)CC1 [CBK200374],100.574
15,Cc1oc2nc(CSc3ccc4ccccc4c3)[nH]c(=O)c2c1C(=O)O [CBK296645],49.9425
16,CCN1CCN(CC(=O)C(C#N)c2ccccc2)CC1 (centres unmarked) [CBK269423],99.9959
17,Nc1ncc(-c2ccco2)nc1NCC1CCOCC1 [CBK063825],93.7315
18,CCOC(=O)CSc1c2cc3c(nc2nc(=O)n1Cc1ccccc1)CC(C)(C)OC3 [CBK018608],51.8395
19,O=C(O)CSc1c(NC(=O)c2ccccc2)sc2c1CCCC2 [CBK261062],105.829
20,Clc1ccc(CN2CCN(Cc3ccc(Cl)cc3)C2c2ccncc2)cc1 [CBK265207],108.265
21,O=C(Nc1ccc(S(=O)(=O)NCc2ccncc2)cc1)c1ccccc1Cl [CBK269664],59.0743
22,O=C(Nc1ccc(O)cc1)c1ccc(N2C(=O)c3cccc([N+](=O)[O-])c3C2=O)cc1 [CBK262600],104.707
23,N=c1n(CCN2CCCCC2)c2ccccc2n1CC(=O)c1cccc([N+](=O)[O-])c1 [CBK263481B],51.4797
24,CC(C)C(=O)Nc1ccc(-c2ccsc2)c2ccccc12 [CBK083758],109.06
25,N#Cc1ccccc1N1C(=O)c2cccc([N+](=O)[O-])c2C1=O [CBK115322],85.211
26,O=C(Cn1c(=O)c2nncn2c2ncccc21)NC1CCCCCC1 [CBK288600],127.349
27,CCOC(=O)C1=NOC2COC3(CCN(c4ncccn4)CC3)OCC12 (centres unmarked) [CBK018602],55.1996

row,Compound,% of control remaining
1,N#C/C(=C/c1ccc(Sc2ccc(Cl)cc2)o1)c1ccc(C(=O)O)cc1 [CBK268996],114.534
2,Fc1ccc(-c2cnn(-c3ccc(OC(F)(F)F)cc3)n2)c(F)c1 [CBK112740],106.549
3,Cc1csc(N2CCC(NC3COc4ccc(F)cc4C3)CC2)n1 (centres unmarked) [CBK304751],85.827
4,c1ccc2c(c1)oc1cccc(-c3cc(NCCc4c[nH]cn4)ncn3)c12 [CBK037708],74.449
5,COc1ccccc1N(CCCc1cc(C(F)(F)F)cc(C(F)(F)F)c1)C(=O)C(N)C(C)C (centres unmarked) [CBK001004T],0.1135
6,OC(CN1CCN(Cc2ccccc2)CC1)Cn1c2ccc(Br)cc2c2cc(Br)ccc21 (centres unmarked) [CBK262203],46.6979
7,NS(=O)(=O)c1ccc(NC(=S)NCCN2CCOCC2)cc1 [CBK265818],68.4758
8,O=C(NCCOc1cccc(Cl)c1Cl)c1ccccc1-c1ccccc1 [CBK267390],7.81
9,O=C(Cn1cnc(-c2nccs2)n1)N1CCCCCC1 [CBK306165],88.9593
10,COc1ccc(CN2CCC[C@H]2c2nc(-c3ccc(OC)nc3)no2)c(O)c1 [CBK288898],121.303
11,Cc1cc(C)c(OCC(=O)Nc2ccc3oc(-c4cncc(Br)c4)nc3c2)c(Cl)c1 [CBK266634],110.297
12,COc1c(C(=O)Nc2ccc(CN3CCOCC3)cc2)cc2ccccc2c1Br [CBK268593],115.621
13,CCCn1c(C)cc2cc(NC(=O)Cn3ccnc3)ccc21 [CBK281549],105.404
14,Cc1cc(C)n(CCNCc2cc(-c3ccc(F)cc3)c[nH]c2=O)n1 [CBK284694],115.299
15,C=C(C)Cn1c(SCC(C)C)nnc1-c1ccccc1OC(F)(F)F [CBK200080],80.8475
16,CC1CC(=O)N(c2cccc(C(=O)Nc3cccc(-c4cccc(F)c4)c3)c2)C1=O (centres unmarked) [CBK285734],89.5059
17,C(=C\c1ccccc1)/Cn1c(COc2ccccc2)nc2ccccc21 [CBK265535],80.5426
18,Cn1cnnc1SCC(=O)Nc1c(F)cccc1F [CBK295150],102.836
19,Cc1nc2ccccc2n1CC(=O)NCCN1CCCC1 [CBK267336],96.316
20,COc1ccc(C(=O)N2C[C@@H]3C[C@H](C2)c2ccc(NC(=O)C4CC4)c(=O)n2C3)cc1 [CBK289072],105.717
21,O=C1NCCN(C(=O)COc2ccc(F)cc2F)C1Cc1ccccc1-c1cccnc1 (centres unmarked) [CBK285832],113.654
22,COc1cccc(CC(=O)N(CCC#N)Cc2ccco2)c1 [CBK304859],116.056
23,CC(C)c1ccc(N2C(=O)N[C@@H]3CCN(C(=O)c4cccs4)[C@@H]3C2=O)cc1 [CBK289286],114.017
24,Cc1cc(CC(=O)N/N=C/c2ccccc2)[nH]n1 [CBK007500],59.1781
25,COc1ccc(NS(=O)(=O)c2ccc3c(c2)oc(=O)c2cc(S(=O)(=O)Nc4ccc(OC)cc4)ccc23)cc1 [CBK268439],61.0874
26,O=C1OC(c2ccc(N3C(=O)c4cccc5cccc(c45)C3=O)cc2)(c2ccc(N3C(=O)c4cccc5cccc(c45)C3=O)cc2)c2ccccc21 [CBK261845],86.84
27,O=C(Nc1ccccn1)Nc1ccccn1 [CBK015518],68.2237

row,Compound,% of control remaining
1,N#CC1=C(N)n2c(s/c(=C\c3ccncc3)c2=O)=C(C#N)C1c1ccncc1 (centres unmarked) [CBK262563],94.9215
2,Cc1ccc(C(=O)NCCNc2cnccn2)cc1S(C)(=O)=O [CBK246280],76.1955
3,CCCCOc1ccc(NC(=O)NCCc2cccs2)cc1 [CBK045202],77.9593
4,Cc1ccc(C)c(C2CCCN2C(=O)c2ccc(=O)n(CC(=O)Nc3ccc(F)cc3)c2)c1 (centres unmarked) [CBK286495],102.279
5,CCCn1c(O)nnc1-c1cccnc1 [CBK074889],88.8462
6,Cc1c(C(=O)NCCN2CCC(C)CC2)oc2c1C(O)CC(C)(C)C2 (centres unmarked) [CBK282100],86.5513
7,CN1CC2(CCCN(Cc3noc(-c4ccccc4)n3)C2)OC1=O (centres unmarked) [CBK306952],82.3759
8,CNC(=O)N1CCN(CCOC(c2ccc(F)cc2)c2ccc(F)cc2)CC1 [CBK024948C],8.2866
9,COC1C(O)C(CO)OC1n1cnc2c(N)nc(N)nc21 (centres unmarked) [CBK201241],106.397
10,O=C(O)Cc1sc(-c2ccc(Cl)cc2)nc1O [CBK067730],102.424
11,COC(=O)Nc1ncc(CN2CCc3ccccc3C2)s1 [CBK268376],119.802
12,COCCNc1nc(-c2ccc(F)cc2)cnc1N [CBK063591],105.854
13,COc1ccc(-c2ccc(=O)n(CC(=O)NCc3ccc(C(=O)O)cc3)n2)c(F)c1 [CBK286776],77.2005
14,Nc1cccnc1OCCN1CCN(CC(=O)N2CCCCc3ccccc32)CC1 [CBK007764],89.277
15,COCc1cn(C2CC(O)C(CO)O2)c(=O)[nH]c1=O (centres unmarked) [CBK201230],100.84
16,Cn1cc(C2CCCCCN2Cc2cc(Cl)ccc2O)cn1 (centres unmarked) [CBK282941],98.7122
17,COc1cc(C(=O)Nc2nc3c(C)cccc3s2)cc(OC)c1OC [CBK287302],93.8716
18,COC(=O)c1cccn2cc(CN(CC#N)C3CC3)nc12 [CBK305821],89.7371
19,Oc1cc(CCc2ccc(F)cc2)nc2ccnn12 [CBK281876],102.886
20,CCc1nnc(NC(=O)COC(=O)CSc2nc(C)cc(C)n2)s1 [CBK018792],93.5886
21,COc1cc(CN2CCC(Cc3ccccc3-c3ccccc3)(C(N)=O)CC2)cc(OC)c1 [CBK285912],121.27
22,CC(C)(C)OC(=O)N1CCC(C(=O)NCc2ccccn2)CC1 [CBK305696],66.6867
23,Cc1ccc2c(c1)oc(=O)n2CCNC(=O)Cc1c[nH]c2ccccc12 [CBK284473],105.175
24,NCCSC1CC(=O)N(Cc2cccs2)C1=O (centres unmarked) [CBK269047C],110.956
25,Cc1cnn(CC2CCCN2C(=O)CC2OCCc3ccsc32)c1 (centres unmarked) [CBK305370],84.8542
26,Cc1n[n+]2c(C(=O)Nc3ccc(S(=O)(=O)Nc4nccs4)cc3)c(C)[n-]n2c1[N+](=O)[O-] [CBK293983],73.2465
